Drawing on patent US20190330338A1 (published 2019), this text covers Kd for one molecule.

In general, Kd refers to the free concentration of one partner at which half of the binding sites on the other are occupied at equilibrium, for simple one-to-one binding.

For assay [1], the target named is T1, recombinant CD229 (human, UniProt Q9HBG7 48-454).
T1 chain: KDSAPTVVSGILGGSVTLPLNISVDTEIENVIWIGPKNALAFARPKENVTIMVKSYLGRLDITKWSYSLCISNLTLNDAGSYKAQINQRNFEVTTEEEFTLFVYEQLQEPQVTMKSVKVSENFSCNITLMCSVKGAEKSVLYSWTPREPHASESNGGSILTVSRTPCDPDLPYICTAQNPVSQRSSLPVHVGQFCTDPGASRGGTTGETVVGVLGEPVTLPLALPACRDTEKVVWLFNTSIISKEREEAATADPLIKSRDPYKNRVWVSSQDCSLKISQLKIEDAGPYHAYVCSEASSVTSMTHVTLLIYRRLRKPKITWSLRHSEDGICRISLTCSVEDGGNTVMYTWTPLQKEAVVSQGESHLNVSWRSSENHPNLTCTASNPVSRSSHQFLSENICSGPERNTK
Description: SPR. (In general: SPR reads the build-up and loss of mass on a sensor chip optically.)

In assay [2] the target is T1, recombinant CD229. The experiment in a line: SPR.

Where two headings read alike, the source gives them in different places.

B1: anti-CD229 antibody clone 2D3 expressed as scFv-Fc (Fc fusion)
chain: QVQLVESGGGLVQPGRSLRLSCAASGFTFDDYAMHWVRQAPGKGLEWVSGISWNSGSIGYADSAKGRFTISRDNSKNTLYLQMNSLRAEDTAVYYCAKRGNSNSFDYWGQGTLVTVSSLEGGGGSGGGGSGGGAS[about 100 residues left out here]
B1: the Kd in assay [1] and in assay [2] was 22.9 nM throughout.
